Laboratory results reported in PMC4336329 (PLoS ONE, 2015).
In all, about 310,000 compounds went through this assay and about 14,000 (4.5%) showed an effect of 50% or more. Effects have a minus sign here. The list shows a part of the results. Where a SMILES comes first, the peptide text is derived from it. The star is where a group is joined. Boc = CC(C)(C)OC(=O)*; OBn = c1ccc(CO*)cc1

Each compound was assayed against human ether-à-go-go-related gene (hERG) potassium channel (human, UniProt Q12809) (assay: primary screen, population patch clamp on CHO cells stably expressing hERG).
human ether-à-go-go-related gene (hERG) potassium channel, sequence (Q12809 whole entry, looked up): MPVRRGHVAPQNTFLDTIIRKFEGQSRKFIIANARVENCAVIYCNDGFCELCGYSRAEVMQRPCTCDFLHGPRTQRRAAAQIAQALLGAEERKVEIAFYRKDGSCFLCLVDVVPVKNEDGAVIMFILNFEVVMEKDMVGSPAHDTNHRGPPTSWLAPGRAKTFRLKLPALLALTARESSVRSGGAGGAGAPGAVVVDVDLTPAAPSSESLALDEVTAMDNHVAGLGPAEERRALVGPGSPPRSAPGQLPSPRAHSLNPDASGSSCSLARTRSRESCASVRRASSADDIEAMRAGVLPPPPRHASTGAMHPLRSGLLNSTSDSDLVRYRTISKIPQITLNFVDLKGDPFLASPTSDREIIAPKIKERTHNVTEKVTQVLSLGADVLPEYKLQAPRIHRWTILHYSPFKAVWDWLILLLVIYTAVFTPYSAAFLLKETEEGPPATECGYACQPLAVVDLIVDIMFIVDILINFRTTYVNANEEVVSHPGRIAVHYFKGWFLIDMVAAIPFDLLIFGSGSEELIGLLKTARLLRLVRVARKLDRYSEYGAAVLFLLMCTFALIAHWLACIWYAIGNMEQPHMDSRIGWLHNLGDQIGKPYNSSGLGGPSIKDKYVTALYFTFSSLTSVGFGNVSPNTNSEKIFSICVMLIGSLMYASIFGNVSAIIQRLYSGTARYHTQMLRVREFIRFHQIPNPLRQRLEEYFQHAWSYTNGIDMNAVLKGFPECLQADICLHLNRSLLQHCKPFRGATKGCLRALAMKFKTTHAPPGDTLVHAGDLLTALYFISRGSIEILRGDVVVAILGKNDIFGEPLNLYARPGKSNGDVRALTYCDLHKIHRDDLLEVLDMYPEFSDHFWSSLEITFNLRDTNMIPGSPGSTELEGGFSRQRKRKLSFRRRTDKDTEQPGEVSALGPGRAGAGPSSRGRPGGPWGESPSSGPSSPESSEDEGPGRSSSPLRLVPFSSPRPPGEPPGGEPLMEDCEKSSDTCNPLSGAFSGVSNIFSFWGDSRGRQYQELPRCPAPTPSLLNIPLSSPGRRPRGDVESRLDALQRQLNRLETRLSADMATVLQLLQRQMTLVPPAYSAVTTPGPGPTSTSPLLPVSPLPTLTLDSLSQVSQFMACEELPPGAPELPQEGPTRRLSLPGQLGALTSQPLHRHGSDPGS
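Further: peak tail current of the secondary pulse compared with the same well before compound.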

SMILES	hERG current change (%, negative = inhibition) at 10uM [%]
CC1CCCN(C(=S)Nc2ccc(S(=O)(=O)N3CCCCC3)cc2)C1 (stereo not drawn)	-15.9
Nc1[nH]n2c(=O)c3c(nc2c1N=Nc1ccc(Cl)cc1)CCCC3	-8.56
O=C(CO/N=C/c1ccccc1OC(F)F)NCc1ccco1	-5.06
CCOC(=O)C1CCN(C(=O)CS(=O)Cc2nc(-c3ccc(C)cc3)oc2C)CC1 (stereo not drawn)	-0.626
CCOC(=O)N1c2ccccc2Sc2ccccc21	2.15
COCCn1c(SCC(=O)Nc2cc(C(C)(C)C)nn2-c2ccccc2)nnc1-c1ccncc1	-60
CCN(CC(=O)NCc1ccc(Cl)cc1)C(=O)CN1C(=O)NC(CC)(c2ccccc2)C1=O (stereo not drawn)	-6.03
COc1ccc(C(CNC(=O)c2cccc(NS(=O)(=O)c3ccc(C)c(F)c3)c2)N2CCCC2)cc1 (stereo not drawn)	-64
Cc1cc(=O)oc2c3c(cc(OCC(=O)NCCC(=O)O)c12)OC(C)(C)CC3	10.8
NC(=O)COC(=O)C(Cc1ccccc1)NS(=O)(=O)c1ccccc1F (stereo not drawn)	11.5
COc1ccc(C2NC(=S)N(c3ccccc3)C(C)=C2C(=O)Nc2ccccc2)cc1 (stereo not drawn)	2.82
C[C@H](NC(=O)Cc1cccc2ccccc12)C(=O)NCc1ccccc1	7.09
O=Nc1c(O)[nH]c2c(F)cccc12	1.42
CN(Cc1cccs1)C(=O)CSc1nc2ccccc2[nH]1	1.16
COc1ccc(C)cc1S(=O)(=O)N(CC(=O)NCc1ccco1)c1ccc(C)cc1	-38.7
O=C(COc1ccc(-c2nnco2)cc1)Nc1c(Cl)cccc1C(F)(F)F	2.41
C=CCc1cccc2cc(C(=O)N3CCN(C(=O)OCC)CC3)c(=O)oc12	-26.9
CCc1ccc(N2CC(C(=O)Nc3nccs3)CC2=O)cc1 (stereo not drawn)	-5.56
CCC(C)NC(=O)COC(=O)c1csc2c1CCCC2 (stereo not drawn)	11.1
O=C(NCc1ccc2c(c1)OCO2)c1cccs1	-16.5
Cc1cccc(N(CC(=O)NC(C)(C)C)C(=O)CCC(=O)Nc2ccccn2)c1	22.5
COc1ccc(N2C(=O)CC(Nc3cccc(C(C)=O)c3)C2=O)cc1OC (stereo not drawn)	7.07

SMILES	hERG current change (%, negative = inhibition) at 10uM [%]
CN1C(=O)C(CC(=O)Nc2ccc(Cl)cc2)N(Cc2ccco2)C1=S (stereo not drawn)	-3.36
O=[N+]([O-])c1ccc(N/N=C/C=C/c2ccco2)cc1	7
CC(C)CCOP(=O)(c1ccc(N(C)C)cc1)C(O)c1ccc(N(C)C)cc1 (stereo not drawn)	-3.32
O=C(NC1CCC(O)CC1)c1cccnc1Sc1ccccc1Cl (stereo not drawn)	10.4
O=C(O)CCC(=O)Nc1ccc(Br)c(Cl)c1	20.6
CC(C)(C)C(=O)NC1(C(F)(F)F)NC(=O)N(c2ccccc2F)C1=O (stereo not drawn)	14.6
COc1cc(NC(=O)CSc2nc3ccccc3c(=O)n2C)ccc1NC(=O)c1ccco1	-29.4
COc1ccc(Nc2nc(N3CCCCC3)nc3ccccc23)c(OC)c1	-62.9
O=C(COc1ccccc1)NC(=S)Nc1cccc(NC(=O)c2ccccc2Cl)c1	9.14
COc1ccc(NC(=O)CSc2nc3ccccc3c3nc4ccccc4n23)cc1	4.3
COC(=O)C1(Cc2ccccc2)NC(c2ccccc2C)C2C(=O)N(c3ccc4c(c3)OCO4)C(=O)C21 (stereo not drawn)	3.57
CC(=O)Nc1ccccc1OCC(=O)NC(C)c1ccccc1 (stereo not drawn)	2.08
Cc1ccc2cc3c(N)[nH]nc3nc2c1	-2.36
CN/C(=C\[N+](=O)[O-])NCCSCc1ccc(CN(C)C)o1.Cl	9.07
C/C(=N\NC(=O)Cc1ccc(Br)cc1)c1cccnc1	-7.27
COCCCNC(=O)C1CCN(C(=O)c2oc3cc4sc(N(C)C)nc4cc3c2C)CC1	7.03
O=C(O)CCC(=O)Nc1ccc(Br)cc1C(=O)c1ccccc1	19.4
COCCCN1C(=O)C(=O)/C(=C(/O)c2ccc(S(=O)(=O)N3CCOCC3)cc2)C1c1ccc(C)cc1 (stereo not drawn)	2.78
CN1C(=O)C2(NC(=O)c3ccccc3N2C)c2ccccc21 (stereo not drawn)	1.73
CC(C)(C)OC(=O)NCC(=O)NCC(=O)OCc1ccccc1 (Boc-Gly-Gly-OBn)	-5.2
CN1C(=O)OC2(C)CCc3ccccc3C12C (stereo not drawn)	11.7
COc1ccc(C(=O)Nc2ccccc2N2CCOCC2)cc1S(=O)(=O)N1CCOCC1	-17.8

SMILES	hERG current change (%, negative = inhibition) at 10uM [%]
Cc1ccc(S(=O)(=O)N(C)C)cc1NC(=O)CSc1ncn[nH]1	3.1
O=[N+]([O-])c1ccccc1S(=O)(=O)Nc1ccc2c(c1)OCCO2	1.28
CC1=C(C(=O)N2CCCC(N3CCN(c4cccc(C(F)(F)F)c4)CC3)C2)OCCO1 (stereo not drawn)	-17.9
COc1ccc(Cc2noc(CN(C)CC3(N4CCOCC4)CCCCC3)n2)cc1OC	-15.5
COc1ccc2c(c1)CCC/C2=N/OC(=O)c1ccccc1OC	7.18
COc1ccc(OC)c(CCNC(=O)Cn2cccc2C(=O)c2ccccc2C)c1	-6.7
Cc1nnsc1C(=O)Nc1cccc(Cl)c1	7.95
CCOc1ccc(NC(=O)C/C(C)=N/NC(=O)c2cnccn2)cc1	-13.3
Cc1nnc(NC(=O)/C=C/c2ccco2)s1	26.3
Cc1ccc(NC(=S)NC(=O)c2ccc(F)cc2)cc1S(=O)(=O)Nc1cccc(Cl)c1	13.4
CCC(NC(=O)Cc1cccs1)c1ccccc1 (stereo not drawn)	19.5
Cc1cc2nn(-c3cccc4ccccc34)nc2cc1NC(=O)c1cccs1	4.11
Cc1ccc(S(=O)(=O)Nc2nc3n(n2)C(c2ccc(Cl)cc2)CC(=O)N3)cc1 (stereo not drawn)	8.7
CCN(CC(=O)Nc1ccc(NC(C)=O)cc1)C(=O)CSc1nnc(-c2ccco2)n1CC	10.8
Cc1nc(Nc2ccccc2Br)c2nnn(Cc3ccccc3)c2n1	7.03
O=C(NCc1cccnc1)c1nnc(Cc2ccc(F)cc2)o1	2.24
Cc1ccc(C(=O)N=c2sccn2C)cc1S(=O)(=O)N1CCOCC1	-4.4
COc1ccc(OC)c(-c2csc(NC(=O)C3CSC4(C)CCC(=O)N34)n2)c1 (stereo not drawn)	7.17
COc1ccc(N2CCN(C(=O)c3ccc(C)cc3)CC2)c([N+](=O)[O-])c1	-62.9
Cc1cccc(-c2cc3nc(C)c(C)c(NCCCn4ccnc4)n3n2)c1	-68.9
CCOc1cccc(CN2CCCC(CCC(=O)NCc3ccccc3F)C2)c1O (stereo not drawn)	-65
O=C(Nc1cc(C(F)(F)F)ccc1N1CCOCC1)C1CC1	-5.99

SMILES	hERG current change (%, negative = inhibition) at 10uM [%]
CCN(CC)c1ccc(NC(=O)CCS(=O)(=O)c2cccc3nsnc23)c(C)c1	4.25
COc1nc(N)nc(N)c1NS(=O)(=O)c1ccc(C)cc1	12.1
Cc1ccc(C(=O)CSc2nnc(-c3ccncc3)n2C)cc1	-3.2
COc1cccc(C(=O)N2N=C(c3ccccn3)CC2(O)C(F)(F)F)c1 (stereo not drawn)	9.73
O=C(COc1ccccc1)Nc1ccc(N2CCN(C(=O)c3cccs3)CC2)cc1	-10.9
C/C(=C\c1ccco1)C1Nc2cccc3cccc(c23)N1	-5.56
CCOc1ccc(C2(C#N)CC[N+](C)(C)CC2)cc1.[Br-]	2.83
O=C(N=Nc1c(O)[nH]c2ccccc12)c1cc(-c2cccs2)[nH]n1	2.84
O=C(Cc1c(O)c2ccccc2[nH]c1=O)N(Cc1ccccc1)Cc1ccccc1	3.37
COCCn1c(=O)c2c(nc3n2CC(C)CN3CCc2ccccc2)n(C)c1=O (stereo not drawn)	-56.6
O=C(O)/C=C/C(=O)N(Cc1ccccc1)Cc1ccco1	-0.557
COc1ccc(NC(=S)NC23CC4CC(CC(C4)C2)C3)cc1OC	3.45
CCc1nn(C)c2c(=O)c(=O)c2n(C)[nH]1	22.7
Cc1ccnc(N2CCCC(C(=O)Nc3nnc(C)s3)C2)n1 (stereo not drawn)	-6.99
COc1ccc(CN(C)CC(=O)NCC(=O)Nc2c(C)cccc2C)cc1	-8.26
CCOc1cc2c(C#N)c(N3CCCCC3)nc(N)c2c(N)n1	-9.7
COc1cccc(CNC(=O)c2ccc(Cl)c(NC3=NC4CS(=O)(=O)CC4S3)c2)c1 (stereo not drawn)	13.4
O=C(CN1C(=O)NC2(CCCCC2)C1=O)Nc1ccc2[nH]c(=O)[nH]c2c1	8.6
COc1ccccc1NC(=O)Cc1nn(C)c(=O)c2ccccc12	3.08
Cc1nnc2sc(SCc3ccc(Br)cc3)nn2c1=O	13.9
Cc1cc(NC(=O)c2sccc2C)n(-c2cccc(Cl)c2)n1	-13.2
